Data published in patent publication US9464064B2, “HCV helicase inhibitors and methods of use thereof” (University of Kansas, priority 2011, dated 2016).
For some of these results: At least one structure is not confirmed: it was looked up by name or label, or the drawing left a doubt. Some entries share one result that the patent states for a list of compounds.

Columns and labels:
MBHA DNA substrate [1] = test: Modified FID assay, SYBR Green I; format: binding; settings: for EC50: read-out: FID (SG) EC50 (converted)
Protocol: A modified FID assay, in which ethidium bromide was replaced with SYBR Green I (Invitrogen), was used to estimate a compounds affinity for the MBHA substrate. Reactions were performed as described above except that the DNA substrate was present at 0.32 μM, ethidium bromide was absent, and SYBER Green was present at (0.68 μM). Data were normalized as described above and fit to concentration-response equation using GraphPad Prism software. Titrations with each compound were performed in triplicate, and EC50 values from three independent titrations are reported ±standard deviations.

MBHA DNA substrate [2] = test: Fluorescent intercalation displacement (FID) assay, ethidium bromide; format: binding; settings: for decrease of fluorescence of ethidium bromide-bound DNA: compound at 100 μM
Protocol: Fluorescent intercalation displacement (FID) assays (Boger, et al. (2001) J. Am. Chem. Soc. 123:5878-5891) were used to measure the ability of a compound to bind the MBHA substrate. The concentration at which half the ethidium bromide is displaced (EC50) was determined using the different conditions as above to more closely mimic the conditions of a standard helicase assay. Each 100 μL reaction contained 25 mM MOPS pH 6.5, 0.16 μM MBHA DNA substrate (lacking Cy5 and IBQ-RQ modifications), 2 μM ethidium bromide, and various concentrations of test compound. Fluorescence of ethidium bromide was monitored using excitation and emission wavelengths of 545 and 595 nm, respectively, on a Cary Eclipse fluorescence spectrophotometer in white 96-well plates. The amount of ethidium bromide-DNA complex fluorescence was used to estimate the ability of compounds to bind DNA, and therefore displace the fluorescent intercalator (ethidium bromide).
In Equation 4, Fc is the fluorescence in the presence of the compound, F(−) is the average DMSO-only negative controls, and F(+) is the average positive controls (100 μM berenil). EC50 values were from a normalized dose-response curve.
These twelve hits were then subjected to a counterscreen designed to independently identify DNA binding compounds using a modified fluorescent intercalator displacement (FID) assay (Boger, et al. (2001) supra). The FID assay used ethidium bromide to judge a compound's ability to bind DNA and was based on the assumption that a DNA binding compound would displace a fluorescent DNA intercalating agent, leading to an observable decrease in observed fluorescence. Compounds were tested at 1.5 μM in the presence of the 25 base pair substrate used in the helicase assays.

Structure (SMILES)	FID (SG) % Displaced @ 100 μM (MBHA DNA substrate [1])	EC50 (MBHA DNA substrate [1])	decrease of fluorescence of DNA-bound ethidium bromide (MBHA DNA substrate [2]; compound at 1.5 μM)	decrease of fluorescence of ethidium bromide-bound DNA (MBHA DNA substrate [2])
Cc1ccc2nc(-c3ccc(NC(=O)c4ccc(NS(=O)(=O)c5ccccc5)cc4)cc3)sc2c1S(=O)(=O)O	25 ± 5%	> 100 µM	–	–
Cc1ccc2nc(-c3ccc4nc(-c5ccc(NC(=O)c6ccc7ncoc7c6)cc5)sc4c3)sc2c1S(=O)(=O)O	59 ± 17%	46 µM	–	–
Cc1c2ccncc2c(C)c2c1[nH]c1ccccc12 [ellipticine, reference compound]	–	–	less than 8%	–
Cc1ccc2nc(-c3ccc4nc(-c5ccc6nc(-c7ccc8nc(-c9ccc(N)cc9)sc8c7)sc6c5)sc4c3)sc2c1S(=O)(=O)O [Compound P4, 2′″-(4-aminophenyl)-6-methyl-[2,6′:2″,6′″-quaterbenzo[d]thiazole]-7-sulfonic acid]	–	–	–	more than 50%
Cc1ccc2nc(-c3ccc4nc(-c5ccc6nc(-c7ccc(N)cc7)sc6c5)sc4c3)sc2c1S(=O)(=O)O [Compound P3, 2″-(4-aminophenyl)-6-methyl-[2,6′:2′,6″-terbenzo[d]thiazole]-7-sulfonic acid]	–	–	–	more than 50%
Cc1ccc2nc(-c3ccc(NC(=O)c4ccc(C(F)(F)F)cc4)cc3)sc2c1S(=O)(=O)O	9 ± 6%	> 100 µM	–	–
Cc1ccc2nc(-c3ccc4nc(-c5ccc(NS(=O)(=O)c6ccc(C(F)(F)F)cc6)cc5)sc4c3)sc2c1S(=O)(=O)O	57 ± 20%	82 µM	–	–
Cc1ccc2nc(-c3ccc(NC(=O)c4ccc(N)cc4)cc3)sc2c1S(=O)(=O)O	17 ± 6%	> 100 µM	–	–
